# Laboratory results as given in the supplement of paper PMC7826260.
# The other results are listed elsewhere or left out. One pool of 16,384 single-stranded DNAs met each Rep nickase domain in vitro (1 h at 37 °C, 3 µM enzyme); the outer parts of the 90-letter strands are left off. Uncut reads are compared with the no-enzyme pool on a log2 scale; strong cutting gives strongly negative numbers. There is no active / inactive call. Shares of all reads are compared, so uncut sequences can rise above 0 when many others are cut.
# Columns and labels:
# Assay in all cases: uncleaved DNA left, log2 of reads against the no-enzyme library (log2 ratio); higher = less cleavage (more negative = more Rep cleavage of the k-mer); sequences stand for … in CTCGTCCG…ACCGGAGA
# [1] = system: T1, Rep nickase domain of Muscovy duck circovirus
# T1 sequence (Rep 1-111, printed without the tag): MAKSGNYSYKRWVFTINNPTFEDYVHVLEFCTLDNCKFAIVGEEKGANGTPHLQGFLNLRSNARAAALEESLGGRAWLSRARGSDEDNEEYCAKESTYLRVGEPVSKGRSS
# Protocol: (§1)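 A pool of 90-nt single-stranded DNAs with seven random bases just before the constant AC of the nick site (name = the seven bases) was cut by 3 µM recombinant His6-SUMO-tagged Rep nickase domain (300 nM DNA, 50 mM HEPES pH 8.0, 50 mM NaCl, 1 mM MnCl2, 1 h, 37 °C, three replicates). Uncut DNA was amplified and sequenced.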
# [2] = system: T2, Rep nickase domain of banana bunchy top virus
# T2 sequence (Rep 1-94, printed without the tag): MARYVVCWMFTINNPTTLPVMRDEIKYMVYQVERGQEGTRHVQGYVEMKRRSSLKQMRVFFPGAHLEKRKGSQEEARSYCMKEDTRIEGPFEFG
# Protocol: as §1
# [3] = system: T3, Rep nickase domain of cabbage leaf curl virus
# T3 sequence (Rep 1-116, printed without the tag): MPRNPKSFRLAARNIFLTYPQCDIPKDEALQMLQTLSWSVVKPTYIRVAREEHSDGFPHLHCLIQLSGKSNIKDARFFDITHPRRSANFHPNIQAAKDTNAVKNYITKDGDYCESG
# Protocol: as §1
# [4] = system: T4, Rep nickase domain of chickpea chlorotic dwarf virus
# T4 sequence (Rep 1-124, printed without the tag): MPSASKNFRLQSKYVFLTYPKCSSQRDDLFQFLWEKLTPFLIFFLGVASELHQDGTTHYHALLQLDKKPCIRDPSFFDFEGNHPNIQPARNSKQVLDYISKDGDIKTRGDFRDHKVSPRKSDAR
# Protocol: as §1
# [5] = system: T5, Rep nickase domain of faba bean necrotic yellows virus
# T5 sequence (Rep 1-98, printed without the tag): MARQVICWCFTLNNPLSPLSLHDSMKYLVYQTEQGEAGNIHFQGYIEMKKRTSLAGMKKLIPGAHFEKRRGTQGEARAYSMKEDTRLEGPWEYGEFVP
# Protocol: as §1
# [6] = system: T6, Rep nickase domain of maize striate mosaic virus
# T6 sequence (Rep 1-117, printed without the tag): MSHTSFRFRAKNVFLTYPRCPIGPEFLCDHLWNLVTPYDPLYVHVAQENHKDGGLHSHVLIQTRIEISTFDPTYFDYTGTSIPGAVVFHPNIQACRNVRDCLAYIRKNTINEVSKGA
# Protocol: as §1
# [7] = system: T7, Rep nickase domain of porcine circovirus 2
# T7 sequence (Rep 2-116, printed without the tag): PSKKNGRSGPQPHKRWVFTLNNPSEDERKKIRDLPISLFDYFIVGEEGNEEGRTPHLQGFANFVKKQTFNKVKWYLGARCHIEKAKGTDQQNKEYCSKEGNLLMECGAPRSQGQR
# Protocol: as §1
# [8] = system: T8, Rep nickase domain of tomato golden mosaic virus
# T8 sequence (Rep 1-124, printed without the tag): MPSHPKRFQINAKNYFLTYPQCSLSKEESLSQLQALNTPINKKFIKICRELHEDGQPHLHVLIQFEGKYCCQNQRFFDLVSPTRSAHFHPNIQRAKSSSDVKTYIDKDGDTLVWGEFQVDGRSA
# Protocol: as §1
# [9] = system: T9, Rep nickase domain of tomato yellow leaf curl virus
# T9 sequence (Rep 1-136, printed without the tag): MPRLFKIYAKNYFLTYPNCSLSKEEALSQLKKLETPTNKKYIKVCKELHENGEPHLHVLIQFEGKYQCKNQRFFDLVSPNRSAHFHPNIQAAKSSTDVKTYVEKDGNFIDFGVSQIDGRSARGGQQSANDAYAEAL
# Protocol: as §1
# [10] = system: T10, Rep nickase domain of wheat dwarf virus
# T10 sequence (Rep 1-137, printed without the tag): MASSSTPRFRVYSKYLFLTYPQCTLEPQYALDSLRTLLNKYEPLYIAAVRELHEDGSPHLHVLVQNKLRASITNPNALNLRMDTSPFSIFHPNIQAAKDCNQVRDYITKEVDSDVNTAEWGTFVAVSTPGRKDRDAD
# Protocol: as §1
Sequence,uncleaved DNA left (log2) [1],uncleaved DNA left (log2) [2],uncleaved DNA left (log2) [3],uncleaved DNA left (log2) [4],uncleaved DNA left (log2) [5],uncleaved DNA left (log2) [6],uncleaved DNA left (log2) [7],uncleaved DNA left (log2) [8],uncleaved DNA left (log2) [9],uncleaved DNA left (log2) [10]
TAAAAGA,0.0562,0.0599,-0.454,-2.2,0.127,-1.01,0.122,0.0209,-0.00648,-0.058
CTAGTTC,0.0274,0.0891,0.102,-1.01,-0.0692,-0.573,-0.014,-0.11,0.0394,-0.0677
CGGTTGG,-0.0455,-0.069,-0.343,-0.221,0.0586,-0.584,0.146,-0.132,0.0617,-0.0178
GCGCCAC,0.128,0.0902,0.327,0.64,0.213,0.565,0.064,0.11,0.137,0.154
GAGACCA,0.0304,-0.0232,0.435,1.14,-0.0288,1.47,0.12,0.121,0.0286,0.142
TACAACC,-0.0979,0.002,-0.145,-2.42,0.0529,-0.621,-0.887,0.0502,0.0252,0.111
GGACTAC,0.0595,0.187,0.93,1.92,0.0441,2.28,0.128,0.0438,0.206,0.164
GTTTATG,0.208,0.129,0.27,0.603,0.191,0.396,0.246,0.217,0.19,0.0967
CCGACCG,-0.0617,-0.163,-0.631,-0.611,-0.105,-1.03,0.00717,-0.165,-0.139,-0.295
CTGAACA,0.0418,-0.0785,-0.0287,-1.17,0.144,-0.0965,-0.0295,-0.0107,0.146,0.0975
ATCCATT,0.0352,0.0741,-0.11,-1.85,0.131,-1.02,-1.83,-0.0626,0.117,0.0516
GGCAGTT,0.125,0.0612,0.695,1.38,0.0848,1.96,0.112,-0.0529,-0.0225,0.157
GAGTTCC,-0.0394,-0.00941,0.431,0.755,-0.0513,1.44,-1.76,0.0308,0.0765,0.148
ACGCCCC,-0.0824,0.0271,0.00165,0.0553,-0.0853,-0.059,-0.477,-0.0083,-0.0525,-0.0911
TCTCTCT,0.0608,-0.17,0.0564,-1.93,0.0575,-0.247,-0.221,-0.0594,-0.0223,-0.0936
CCATAAT,-2.99,-0.111,-0.708,-1.98,0.0641,-0.68,-3.37,-0.0876,-0.0412,0.0247
GAAAGCT,-0.0194,0.0233,-0.425,-1.42,-0.0515,0.231,-0.0073,-0.00988,-0.081,-0.0773
TGCTGAG,0.112,-0.142,-0.471,-0.0909,0.175,-1.08,0.254,-0.0322,-0.0421,0.0808
TTATGTT,-3.24,-0.864,-3.5,-3.14,-0.243,-2.52,-3.34,-3.16,-0.113,-3.41
CTAAAAA,0.00614,0.13,0.138,0.0363,0.092,-0.698,0.129,0.0982,0.0311,0.149
GTAGGTT,0.14,0.0732,0.287,0.685,0.0299,1.75,0.0207,0.0979,-0.116,-0.0683
TTTTAAG,0.0334,0.0173,-0.785,-0.507,0.0669,-0.978,0.216,0.0897,-0.00125,-0.0347
TTTAGGT,0.0556,-0.0339,0.542,1.2,-0.0413,1.8,0.0364,0.0674,-0.155,0.00618
GCGGCAC,-0.144,0.0805,0.595,1.39,-0.0373,1.85,0.141,0.0522,0.0238,0.146
GTATTAA,0.00165,0.211,0.376,0.898,0.089,1.8,0.134,0.233,0.124,0.288
AACTATT,-3.86,-3.8,-3.34,-3.42,-3.01,-2.13,-4.49,-2.4,-0.0843,-1.69
CGATGAT,-0.184,-0.00332,0.149,0.392,-0.078,0.923,-0.907,0.0753,-0.0663,-0.0919
GAATAAG,0.00623,0.0154,-0.704,-0.264,-0.00975,-0.939,0.0551,-0.0306,-0.0451,-0.0924
GTGACGT,-0.0386,0.0231,0.826,1.84,-0.032,2.1,0.229,-0.0484,0.0195,0.125
TCTGAGT,0.0337,0.129,-0.14,-0.313,0.128,-0.745,0.02,0.0355,-0.00765,0.0501
